Assay results: the antibiotic and cytotoxicity screens of Wong et al. (2023)
The other results are listed elsewhere or left out.

Assays:
HSkMC = human skeletal muscle cells; test: cytotoxicity call (relative viability < 0.9); conditions: 10 µM
HepG2 = test: cytotoxicity call (relative viability < 0.9); conditions: 10 µM
S. aureus RN4220 = test: growth inhibition call (relative growth <= 0.2); conditions: 50 µM

Compound	cytotoxicity call (HSkMC)	cytotoxicity call (HepG2)	growth inhibition call (S. aureus RN4220)
C[C@@H]1CCCCO[C@@H](CN(C)C(=O)C2CCCCC2)[C@H](C)CN([C@@H](C)CO)C(=O)c2cc(NC(=O)c3ccccc3)ccc2O1	inactive	inactive	inactive
C[C@H](CO)N1C[C@H](C)[C@H](CN(C)Cc2ccc(-c3ccccc3)cc2)Oc2ccc(NC(=O)CCCCCC(=O)Nc3ccccc3N)cc2CC1=O	inactive	active	inactive
C[C@@H]1CN([C@@H](C)CO)C(=O)c2cc(NS(=O)(=O)c3ccc(F)cc3)ccc2O[C@@H]1CN(C)S(C)(=O)=O	inactive	inactive	inactive
O=C(C[C@@H]1C[C@H]2c3cc(NS(=O)(=O)c4ccc(F)cc4)ccc3O[C@H]2[C@@H](CO)O1)NCCc1ccccc1	inactive	inactive	inactive
N[C@H]1C[C@@H]1c1ccc(-c2cccc(O)c2)cc1	inactive	inactive	inactive
C[C@H]1CCCCO[C@H](CN(C)S(=O)(=O)c2ccc(F)cc2)[C@@H](C)CN([C@@H](C)CO)C(=O)c2cc(NC(=O)Nc3ccc(F)cc3)ccc2O1	inactive	inactive	inactive
C[C@@H]1CN([C@H](C)CO)C(=O)c2cc(-c3ccncc3)cnc2O[C@@H]1CN(C)S(=O)(=O)c1ccccc1	inactive	inactive	inactive
Cc1noc(C)c1NC(=O)Nc1ccc2c(c1)C(=O)N([C@@H](C)CO)C[C@@H](C)[C@@H](CN(C)C(=O)C1CCCCC1)OCCCC[C@@H](C)O2	inactive	inactive	inactive
C[C@@H]1CN([C@H](C)CO)C(=O)CCCn2cc(nn2)CO[C@H]1CN(C)C(=O)Nc1ccnc(N2CCOCC2)c1	inactive	inactive	inactive
C[C@@H]1CN([C@@H](C)CO)C(=O)c2cc(NS(=O)(=O)c3cccs3)ccc2O[C@H]1CN(C)S(=O)(=O)c1cccs1	inactive	inactive	inactive
C/C(=C\CC[C@@H](C)[C@H]1C[C@@H](O)[C@@]2(C)[C@H]3CC[C@H]4C(C)(C)[C@@H](O[C@@H]5O[C@@H](CO[C@H]6OC[C@@H](O)[C@@H](O)[C@@H]6O)[C@@H](O)[C@@H](O)[C@@H]5O)CC[C@@]45C[C@@]35C[C@@H](O)[C@]12C)C(=O)O[C@H]1O[C@@H](CO)[C@@H](O)[C@@H](O)[C@@H]1O	inactive	inactive	inactive
COCC(=O)N(C)C[C@H]1Oc2cc(C#C[C@@H](C)O)ccc2S(=O)(=O)N([C@@H](C)CO)C[C@@H]1C	inactive	inactive	inactive
C[C@@H]1CN([C@H](C)CO)S(=O)(=O)c2ccc(C#Cc3ccc(F)cc3)cc2O[C@@H]1CN(C)CC1CC1	inactive	inactive	inactive
C[C@H](CO)N1C[C@H](C)[C@H](CN(C)C(=O)c2ccccc2)OCCCC[C@H](C)Oc2ccc(NC(=O)Nc3ccccc3)cc2C1=O	inactive	inactive	inactive
CN(C)Cc1cn(CC[C@@H]2CC[C@@H](NC(=O)Cc3cccnc3)[C@H](CO)O2)nn1	inactive	inactive	inactive
O=C(C[C@H]1C[C@@H]2c3cc(NS(=O)(=O)c4ccc(F)cc4)ccc3O[C@@H]2[C@H](CO)O1)NCc1ccccc1F	inactive	inactive	inactive
CO[C@@H]1CN(C)C(=O)c2cc(NC(=O)Nc3ccccc3)ccc2OC[C@H](C)N(C(=O)CN(C)C)C[C@H]1C	inactive	inactive	inactive
C[C@H](CO)N1C[C@H](C)[C@H](CN(C)S(=O)(=O)c2ccc(F)cc2)Oc2ccc(NC(=O)C3CC3)cc2CC1=O	inactive	inactive	inactive
COc1ccc(NC(=O)N(C)C[C@H]2OCCCC[C@@H](C)Oc3ccc(NC(=O)c4ccccc4)cc3C(=O)N([C@H](C)CO)C[C@H]2C)cc1	inactive	inactive	inactive
Cc1ccc(S(=O)(=O)N(C)C[C@H]2Oc3c(NC(=O)Nc4cccc5ccccc45)cccc3C(=O)N([C@H](C)CO)C[C@@H]2C)cc1	inactive	inactive	inactive
CC(C)(C)NCC(O)c1ccc(O)c(CO)c1 (configuration not stated)	inactive	inactive	inactive
CS(=O)(=O)O.Oc1ccc(C2CNCCc3c2cc(O)c(O)c3Cl)cc1 (configuration not stated)	inactive	inactive	inactive
CN1C(=O)c2cc(NC(=O)c3cscn3)ccc2OC[C@H]2O[C@H](CC(=O)N3CCOCC3)CC[C@H]21	inactive	inactive	inactive
CNC[C@@H]1Oc2ccc(NS(=O)(=O)c3cn(C)cn3)cc2C(=O)N([C@H](C)CO)C[C@H]1C	inactive	inactive	inactive
